Measurements as given in PubChem BioAssay AID1963576 (National Center for Advancing Translational Sciences (NCATS), 2024).
Among all 46,000 compounds or so, about 60 (0.1%) were called active. Roughly 3% stayed inconclusive and do not appear here. The call rests on the fitted dose curve; in most records, active means well fitted inhibition curve with a large enough effect; inconclusive means small, poorly fitted or top-dose-only effect; inactive means no such curve, though single readings can be large or run the other way. The list shows a part of the results.

Assay: Primary qHTS assay for Inhibitors of ovarian cancer metastasis using an organotypic tumor microenvironment (TME) model. Further: nearly all actives have a fitted effect of over 65% in size.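 On activity change, negative = inhibition: plate controls were DMSO wells for no effect and tomatine positive control wells for full effect.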
Conditions: SKOV3ip1-GFP adhesion/invasion on 3D omental model, fluorescence; series mostly up to 45.8 µM; activity change, negative = inhibition: at the top concentration
In short: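 qHTS, 4-pt dose (0.36-46 umol/L); SKOV3ip1-GFP, 1,200 cells/well, no FBS; primary omental fibroblast/mesothelial co-culture 48 h pre-grown; 2 h RT + 16 h 37 C; PBS wash, 4% PFA; GFP count 488/509 nm.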

Activity change, negative = inhibition, inactive:
COc1ccc(N2CCN(C(=O)CCc3c(C)nc4cc(-c5cccc(F)c5)nn4c3C)CC2)cc1 1.71%
Cc1ccccc1C(=O)N1CCCCC1CCN1CCCCC1 (stereo unspecified) -2.37%
CC(=O)N1CCc2c(sc3c2c(=O)n(-c2ccccc2)c(=O)n3Cc2cccc(C(F)(F)F)c2)C1 42.4%
COc1ccc(C)cc1NC(=O)c1oc2ccc(S(=O)(=O)N3CCOCC3)cc2c1C 8.81%
CSc1cccc(NC(=O)CC(c2ccc(F)cc2)N2Cc3ccccc3C2=O)c1 (stereo unspecified) -6.31%
COc1ccc(OC)c(NC(=O)CSC2=Nc3ccccc3C3=NC(CCC(=O)NC4CCCCC4)C(=O)N23)c1 (stereo unspecified) 15.5%
COc1ccc(C(=O)c2c(N)c(-c3nc(-c4ccccc4)cs3)c3ccccn23)cc1 -3.19%
CSc1ncc(C(=O)N2CCN(c3ccc(Cl)cc3)CC2)c(C)n1 14.2%
COc1ccc(C2=C(C(C)=O)Sc3nnc(-c4ccccc4)n3N2C(C)=O)cc1 -9.97%
CC(=O)NCCNC(=O)c1ccc2c(=O)n(CCc3ccccc3)c(=O)[nH]c2c1 5.85%
Cc1ccc(-n2nc(C)c3c(C)c(CCC(=O)NCc4ccccc4Cl)c(C)nc32)cc1 1.42%
CCOc1ccccc1NC(=O)c1ccc(C(=O)Nc2ccccc2OCC)cc1 3.76%
CCOc1cc(C2NC(=O)c3c(sc4c3CCN(C)C4)N2)ccc1OC(=O)c1ccc(F)cc1 (stereo unspecified) 1.27%
COc1cc(NC(=O)c2cc3cc4cc(OC)ccc4nc3o2)cc(OC)c1 -6.32%
CC(=O)c1cc(-c2ccc(F)cc2)n(CCC(=O)NC2CCCCC2)c1C 12%
COC(=O)c1ccccc1NC(=O)CCc1c(C)nc2cc(-c3ccc(Cl)cc3)nn2c1C 3.69%
O=C(Nc1ccc(F)cc1F)c1cc(-c2ccc3c(c2)OCO3)on1 3.77%
COC(=O)c1sc2ccccc2c1S(=O)(=O)N1CCN(c2ccc(C(C)=O)cc2)CC1 -5.74%
Cc1ccc(CCNC(=O)c2ccc(CSc3nc4ccncc4n3Cc3ccc(F)cc3)cc2)cc1 3.41%
CCC(C(=O)NCCc1ccc(SC)cc1)n1nc(C)c2c(C)n(-c3ccc(C)cc3)nc2c1=O (stereo unspecified) -6.6%
O=C(Nc1ccc(F)c(F)c1)c1ccc(F)c(S(=O)(=O)N2CCC3(CC2)OCCO3)c1 3.99%
COc1cccc(CNCc2c(C(=O)O)c(C)n(Cc3ccc(F)cc3Cl)c2C)c1OC -5.13%
O=C(CC1N=C2c3ccccc3N=C(SCc3cccc(F)c3)N2C1=O)NC1CCCCC1 (stereo unspecified) -6.88%
O=S(=O)(Nc1cccc(-c2ccc(N3CCCCC3)nn2)c1)c1ccc(F)cc1F -6.71%
CC(C)CNc1cc(NC2CCCCC2)c2c3c(onc13)-c1ccccc1C2=O -2.21%
Cc1ccc(Cl)cc1N1CCN(C(=O)c2cn(C)c3ccc(S(=O)(=O)N4CCCCC4)cc3c2=O)CC1 -7.03%
CC(C)(C)c1cc(NC(=O)Nc2ccc(-c3cn4c(n3)sc3cc(OCCN5CCOCC5)ccc34)cc2)no1 -24.7%
COc1ccc(NC(=O)CSc2c(C(C)C)cnc3c2c(=O)n(C)c(=O)n3C)c(OC)c1 2.41%
CCn1c(=O)n(CC2CCC(C(=O)NC(C)C)CC2)c(=O)c2sccc21 (stereo unspecified) 4.06%
CCN1CCN(c2ncnc3c2cnn3-c2ccc(F)cc2)CC1 -1.88%
CCOC(=O)c1c(C)[nH]c(C)c1S(=O)(=O)N1CCC(C(=O)Nc2ccc(OC)c(OC)c2)CC1 -1.03%
COc1ccc(C(=O)NCC(c2ccc3c(c2)OCO3)N2CCN(C)CC2)cc1OC (stereo unspecified) -7.35%
CCOC(=O)c1cc(CC)sc1NC(=O)COc1ccccc1C -17%
CC1(C)Cc2c(-c3ccccc3)c(-c3ccc(Cl)cc3)c(CC(=O)O)n2C1 -0.698%
CCOc1ccccc1N=Nc1c(C)[nH]n(-c2nc(-c3ccccc3)cs2)c1=O -4.08%
CC(C)c1nc2sc3c(N4CCCCC4)ncnc3c2c2c1CCCC2 2.48%
COc1ccc(CC(=O)Nc2ccc(-c3nc4ccccc4s3)c(C)c2)cc1 -1.83%
COCC(C)Nc1ncnc2c1cnn2-c1cccc(Cl)c1 (stereo unspecified) -3.95%
Cc1ccc(Cl)cc1N1CCN(C(=O)c2cc(S(=O)(=O)N3CCCCC3)cn2C)CC1 7.05%
COc1ccc(C(=O)Oc2ccc(C3NC(=O)c4c(sc5c4CCN(C)C5)N3)cc2OC)cc1 (stereo unspecified) -8.63%
COC(=O)c1ccc(CSc2nc3ccncc3n2Cc2ccc(F)cc2)cc1 0.487%
O=S(=O)(c1ccccc1)c1nnn2c1nc(NC1CCCCCC1)c1sccc12 15.6%
Cc1cccc(Cc2c(C)nc3nc(SCc4cccc(F)c4)nn3c2C)c1 -0.872%
O=C(CN(c1cccc(C(F)(F)F)c1)S(=O)(=O)c1ccccc1)Nc1cccc(Cl)c1 -28.8%
COc1cc(S(=O)(=O)n2ccnc2C(C)C)ccc1Br -1.25%
Cc1ccc(Cn2ccnc2SCC(=O)NC2CCCC2)cc1 -2.66%

outcome, inactive:
Cc1ccc(/C=C/c2nc3ccccc3n2S(=O)(=O)c2ccc(Br)cc2)cc1
COC(=O)c1c(NC(=O)COc2ccc(Cl)cc2C)sc2c1CCCCC2
CCc1nn(CC(=O)NCCCN2CCN(C)CC2)c(=O)c2cc3occc3n12
O=C(Cn1c(=O)n(Cc2ccco2)c(=O)c2sc3ccccc3c21)Nc1ccccc1C(F)(F)F
Cc1nc2nc(C)c(CCC(=O)NCc3cccc(Cl)c3)c(C)n2n1
Fc1ccc(Cc2cn3cc(-c4ccc(F)cc4)nc3s2)cc1
Cc1cccc(OCC(=O)Nc2cccc(-c3nc4ccccc4s3)c2)c1
Cc1ccc(-n2nc(CO)c(C(=O)NC(C)c3ccccc3)n2)cc1C (stereo unspecified)
COc1cc(C2CC(=O)N(CC(=O)Nc3ccccc3F)c3ccccc3S2)cc(OC)c1OC (stereo unspecified)
CCSc1nc2sc3c(c2c(=O)n1-c1ccc(C)cc1)CCCC3
COc1ccc2cc3c(N)nn(C(=O)c4ccc(F)cc4Cl)c3nc2c1
Cc1cc(NC(=O)CN2CCC(O)CC2)nc2c1c(=O)oc1ccccc12
CCOc1ccc(-n2c(SCC(=O)c3ccccc3)nc3c([nH]c4ccccc43)c2=O)cc1
COc1ccc(NC(=O)c2ccc3oc(=O)c(S(=O)(=O)c4ccc(F)cc4)cc3c2)c(OC)c1
Cc1ccc(-c2nc(S(=O)(=O)c3ccc(C)cc3)c(N3CCCCC3)o2)cc1
